According to PubChem BioAssay (NCATS):
The inconclusive results got no clear call from the source; some entries with a clear call stand among them for comparison. A potency beside an inconclusive call is a rough fit, not a confirmed value. The source made the active and inactive calls. Calls follow the shape of the dose curve; as a rule, active = well fitted inhibition curve with a large enough effect; inconclusive = small, poorly fitted or top-dose-only effect; inactive = flat fitted curve, though single readings scatter.

assay: qHTS for Inhibitors of Plasmodium falciparum (DD2) proliferation (AID 504314);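 as to activity, negative = inhibition: parasite DNA measured by SYBR Green fluorescence after red cell lysis; plate controls were DMSO vehicle for no effect and artemisinin wells for full effect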; conditions: P. falciparum Dd2 in erythrocytes, SYBR Green growth, 72 h; activity, negative = inhibition: at 6.11 µM (top of the series)
Method in brief: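 SYBR Green DNA-fluorescence growth assay: infected RBCs at 0.3% parasitemia, 2.5% hematocrit, 72 h compound exposure, 37C, 5% CO2; overnight lysis with dye at RT; normalized to 0.29 uM artemisinin and vehicle.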
Potency is read from the fitted curve at half-maximal effect; tags tell the direction and shape of the fitted curve.

Potency, inactive:
COC(=O)C1=C(C(=O)OC)[C@@H]2Nc3ccccc3[C@@]23C[C@@H](C(=O)OC)N(C(=O)NCCBr)C3=N1, O=C1OC2(CCCCC2)CC2=C1[C@H]1O[C@](c3ccsc3)(Cc3c1ccc1ccccc31)O2, CC(=O)OC[C@H]1O[C@@H](ON=C[C@@H](C)[C@H](OCc2ccccc2)C(C)C)[C@@H](OC(C)=O)[C@@H](OC(C)=O)[C@@H]1OC(C)=O, CCCCc1nc2c(c3c1C[C@H](C)OC3)CN(C(=O)Cc1cccs1)CC2, CC(C)[C@@H](OCc1ccccc1)[C@H](C)C=NOC[C@@H](C)[C@H](OCc1ccccc1)C(C)C, COCC=CC1=CC2=CC(=O)C(C)(OC(=O)c3cnc4ccccc4n3)C(=O)C2=CN1CC(C)C (stereo not given), C=C(C(=O)OCC)C(=O)c1ccccc1, C=CCNC(=O)[C@H]1C=C(OC)C(=O)C[C@H](c2ccccc2)[C@H]1C, Cc1cc(O)cc(O)c1C(=O)OC1(C)C(=O)C=C2C=C(C=CCO)OC=C2C1=O (stereo not given), C(#C[C@@H]1C=C[C@H]2OC(c3ccccc3)OC[C@H]2O1)c1ccccc1 (stereo not given in full), CC12C=C(C=CC=Cc3ccco3)C(C)(C1)C(C=Cc1ccco1)CC2=O (stereo not given), C=COCCN1C=C(C(=O)OCC)C(c2ccccc2)NC1=O (stereo not given), CCCCC1=CC2=C(c3ccco3)C(=O)C(C)(OC(=O)c3ccc(OC)cc3)C(=O)C2=CN1Cc1ccccc1 (stereo not given), CC(CCN1CCc2nc(-c3ccccc3)c(-c3ccccc3)cc2C1)=NOC[C@@H](O)COCc1ccco1

Potency, inconclusive:
C[C@H]1Cc2c(COc3ccccc3)nc3c(c2CO1)CN(C(=O)C1CCCCC1)CC3 4240 nM [inhibitor, single point], CC(C)[C@@H](OCc1ccccc1)[C@H](C)CON=C1[C@H]2CCn3c(=O)n(-c4ccccc4)c(=O)n3[C@@H]2[C@H](O)[C@@H]2O[C@H]12 1690 nM [inhibitor, single point], O=C1[C@@H]2[C@H]3[C@H](O)[C@H](O)CC(=NOC[C@@H](O)COCc4ccco4)[C@@H]3CC[C@H]2C(=O)N1Cc1ccccc1 1500 nM [inhibitor, partial curve, poor fit], CC1=C[C@]2(O[C@H](COc3ccccc3)C1)C(=O)N(C)c1ccccc12 2380 nM [inhibitor, single point], COC(=O)CC=C[C@@H](C)[C@@H](C=NOC[C@H]1O[C@H](c2ccccc2)C=C[C@H]1Oc1ccc(OC)cc1)N[S+](=O)([O-])c1ccc(C)cc1 1690 nM [inhibitor, single point], COC(=O)C(C(=O)OC)[C@@H]1O[C@@]23COC=C[C@]2(C)[C@@H]3c2ccccc21 1690 nM [inhibitor, partial curve, poor fit], CCc1cc2c(nc1CC)CCN(CCC(C)=NOCC[C@@H]1C=C[C@H](OC(C)=O)[C@@H](COC(C)=O)O1)C2 1340 nM [inhibitor, partial curve], COC(=O)C1=C(C(=O)OC)[C@@H]2N(Cc3ccccc3)c3ccccc3[C@@]23C[C@@H](C(=O)OC)N(C(=O)c2cccs2)C3=N1 4240 nM [inhibitor, single point], COC(=O)CCCC1=CC2=CC(=O)C(C)(OC(=O)c3cccs3)C(=O)C2=CN1c1ccc(OC)cc1 (stereo not given) 1890 nM [inhibitor, partial curve, poor fit], C[C@@H]1C=CCC(=O)N2[C@H](CC(=O)N[C@@H]1c1ccccc1)C[C@@H](C)[C@@H]2c1ccccc1 4240 nM [inhibitor, single point], COc1ccc(O[C@H]2C=C[C@@H](c3ccccc3)O[C@H]2CON=C2c3cc(OC)ccc3O[C@H](c3cccc(OC)c3)[C@H]2O)cc1 4240 nM [inhibitor, partial curve, poor fit], COC(=O)CCC(=O)OC1(C)C(=O)C=C2C=C(C3CC3)OC=C2C1=O (stereo not given) 0.8 nM [inhibitor], CC1=CC[C@@H](COc2ccccc2)O[C@@]2(C1)C(=O)N(CC1CC1)c1ccccc12 1690 nM [inhibitor, partial curve, poor fit], CCN1C(=NCc2ccc(OC)cc2)NC(c2cccc(C(F)(F)F)c2)C(C(=O)OC)=C1C (stereo not given) 3360 nM [inhibitor, single point], C#CCCCON=C1C[C@@H](O)[C@H](O)[C@H]2[C@@H]3C(=O)N(Cc4ccc5c(c4)OCO5)C(=O)[C@@H]3CC[C@@H]12 4240 nM [inhibitor, single point], COC(=O)C1=C(C)N(CCc2cc(OC)c(OC)c(OC)c2)C(=O)NC1c1ccc(Br)cc1 (stereo not given) 2380 nM [inhibitor, single point], CCN1C(=NCc2cccc(C(F)(F)F)c2)NC(c2cccs2)C(C(=O)OC)=C1C (stereo not given) 4240 nM [inhibitor, single point], C=CC1=C2C=C(C3CC3)N(CC(C)C)C=C2C(=O)C(C)(OC(=O)c2ccco2)C1=O (stereo not given) 1340 nM [inhibitor, partial curve, poor fit], COC1=C[C@H](C(=O)NC2CCN(Cc3ccccc3)CC2)[C@H](C)[C@@H](c2ccccc2)CC1=O 1890 nM [inhibitor, single point], CC1(OC(=O)C2CCCC2)C(=O)C=C2C=C(c3ccsc3)N(CCN3CCOCC3)C=C2C1=O (stereo not given) 1500 nM [inhibitor, single point], COC(=O)CCCC1=CC2=C(c3ccccc3)C(=O)C(C)(OC(=O)C3CCCC3)C(=O)C2=CN1c1ccc(OC)cc1 (stereo not given) 1500 nM [inhibitor, single point]

activity, negative = inhibition, inconclusive:
COc1ccc2c(c1)O[C@@H](c1cccc(C(F)(F)F)c1)[C@H](OC(=O)Nc1cc(OC)c(OC)c(OC)c1)C2=O -13.9% [inhibitor], COc1ccc(N2C(=O)N3[C@H](c4ccccc4)[C@@H](C)C[C@H]4c5ccccc5C[C@]43C2=O)cc1 -14.4% [inhibitor]

activity, negative = inhibition, inactive:
C=CCN1C=C2C(=O)C(C)(OC(=O)CCC(=O)OC)C(=O)C(Br)=C2C=C1c1ccc(OC)cc1 (stereo not given) -0.526% [at 1.12 µM], CC(C)OCCCN1C=C2C(=O)C(C)(OC(=O)CCc3ccccc3)C(=O)C=C2C=C1c1ccc(C#N)cc1 (stereo not given) -3.06% [at 1.12 µM], COC(=O)CCC(=O)OC1(C)C(=O)C2=CN(Cc3ccccc3)C(c3ccc(OC)cc3)=CC2=C(Br)C1=O (stereo not given) -2.73% [at 1.12 µM]
